Data as given in PMC3868573.
These are yes or no findings as the source states them, for the method shown. In cells and extracts the contact can be indirect. Some entries that bind do so weakly or less than the wild type.

Sequences of proteins named here, by UniProt entry; tags and fusion partners are left off. A change or cut given only in a name is not applied to a line headed by its entry. A line that says so, or that is headed by a name, gives the form on record, which may keep a tag or linker.
UniProt Q9HC16: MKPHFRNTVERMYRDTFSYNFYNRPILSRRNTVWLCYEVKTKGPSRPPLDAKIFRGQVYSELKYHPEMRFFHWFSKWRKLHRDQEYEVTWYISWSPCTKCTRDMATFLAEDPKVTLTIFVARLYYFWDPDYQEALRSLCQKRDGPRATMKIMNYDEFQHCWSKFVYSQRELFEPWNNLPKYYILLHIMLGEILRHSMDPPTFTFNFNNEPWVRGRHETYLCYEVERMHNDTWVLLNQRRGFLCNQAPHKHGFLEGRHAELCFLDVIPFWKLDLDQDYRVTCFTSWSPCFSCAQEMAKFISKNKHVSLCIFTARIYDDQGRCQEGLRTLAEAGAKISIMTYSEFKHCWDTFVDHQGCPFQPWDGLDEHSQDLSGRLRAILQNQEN
hA3G-C97/100A-HA (Q9HC16, form named): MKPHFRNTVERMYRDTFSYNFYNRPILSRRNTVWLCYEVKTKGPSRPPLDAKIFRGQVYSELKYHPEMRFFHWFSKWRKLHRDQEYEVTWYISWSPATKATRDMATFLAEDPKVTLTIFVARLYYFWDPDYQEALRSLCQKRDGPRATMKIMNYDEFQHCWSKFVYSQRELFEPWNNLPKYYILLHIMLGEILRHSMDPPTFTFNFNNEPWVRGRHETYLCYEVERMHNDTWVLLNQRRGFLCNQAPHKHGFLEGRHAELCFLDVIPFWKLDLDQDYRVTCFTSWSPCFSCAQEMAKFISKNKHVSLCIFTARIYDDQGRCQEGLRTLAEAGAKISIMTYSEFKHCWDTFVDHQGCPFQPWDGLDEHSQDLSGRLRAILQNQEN
hA3G-5G(24–28)-HA (Q9HC16, form named): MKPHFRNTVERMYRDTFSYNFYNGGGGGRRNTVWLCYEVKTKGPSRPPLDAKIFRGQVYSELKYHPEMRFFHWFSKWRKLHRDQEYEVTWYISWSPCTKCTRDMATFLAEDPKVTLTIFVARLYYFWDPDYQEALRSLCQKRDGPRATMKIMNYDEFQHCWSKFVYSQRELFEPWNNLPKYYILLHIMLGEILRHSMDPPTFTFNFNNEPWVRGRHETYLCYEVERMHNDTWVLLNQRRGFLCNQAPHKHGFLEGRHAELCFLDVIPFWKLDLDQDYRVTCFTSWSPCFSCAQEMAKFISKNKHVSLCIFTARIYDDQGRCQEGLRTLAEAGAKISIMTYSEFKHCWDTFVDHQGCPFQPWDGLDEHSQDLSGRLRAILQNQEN
hA3G-4G(124–127)-HA (Q9HC16, form named): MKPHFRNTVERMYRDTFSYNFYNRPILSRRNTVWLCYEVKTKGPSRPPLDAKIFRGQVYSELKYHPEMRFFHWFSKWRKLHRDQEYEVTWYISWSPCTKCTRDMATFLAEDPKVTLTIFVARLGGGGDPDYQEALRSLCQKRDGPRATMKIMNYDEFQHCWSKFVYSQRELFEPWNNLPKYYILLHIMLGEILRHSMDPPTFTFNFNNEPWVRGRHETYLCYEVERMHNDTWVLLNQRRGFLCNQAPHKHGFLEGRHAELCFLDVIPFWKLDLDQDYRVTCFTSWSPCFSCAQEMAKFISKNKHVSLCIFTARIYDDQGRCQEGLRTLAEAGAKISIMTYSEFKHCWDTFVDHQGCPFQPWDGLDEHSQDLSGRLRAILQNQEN

Target: myc-tagged wild-type human APOBEC3G (human) (UniProt Q9HC16)
Assay: co-IP; 293T cells co-transfected with HA-tagged wild-type or mutant hA3G and hA3G-myc; lysed after 48 h in RIPA buffer (50 mM Tris-HCl pH 7.4, 150 mM NaCl, 1% NP-40, 0.5% sodium deoxycholate, 0.1% SDS); anti-myc affinity gel 1 h at 4°C; blot with anti-HA; wild-type immune complexes also with or without 25 U RNase A

binding | Substance
no binding | hA3G-NΔ150-HA (from UniProt Q9HC16 151-384) (domain or fragment)
binds | hA3G-Y125G-HA (from UniProt Q9HC16 1-384)
no binding | hA3G-NΔ90-HA (from UniProt Q9HC16 91-384) (domain or fragment)
no binding | hA3G-NΔ60-HA (from UniProt Q9HC16 61-384) (domain or fragment)
no binding | hA3G-C97/100A-HA (from UniProt Q9HC16 1-384)
no binding | hA3G-NΔ30-HA (from UniProt Q9HC16 31-384) (domain or fragment)
no binding | hA3G-5G(24–28)-HA (from UniProt Q9HC16 1-384)
binds | hA3G-E259Q-HA (from UniProt Q9HC16 1-384)
no binding | hA3G-NΔ120-HA (from UniProt Q9HC16 121-384) (domain or fragment)
binds | hA3G-R24G-HA (from UniProt Q9HC16 1-384)
no binding | hA3G-4G(124–127)-HA (from UniProt Q9HC16 1-384)
